Measured values reported in patent US20250326840A1 (QURE BIOTECHNOLOGY SHANGHAI, published 2025).
Numbering of substitutions follows the chain as printed. Blank lines part the entries; values can stand above or below the binder they belong to.

How the values were obtained:
[1] = molecular target: T1, QP100 (cyno SIRPα (G7PGS8) ECD(E29-R368)-flag-his) (cynomolgus); assay: SPR, Biacore
T1 construct: the construct carries flag and his tags; also called cynoSIRPα-flag-his; Cynomolgus SIRPα (QP100)
T1 chain: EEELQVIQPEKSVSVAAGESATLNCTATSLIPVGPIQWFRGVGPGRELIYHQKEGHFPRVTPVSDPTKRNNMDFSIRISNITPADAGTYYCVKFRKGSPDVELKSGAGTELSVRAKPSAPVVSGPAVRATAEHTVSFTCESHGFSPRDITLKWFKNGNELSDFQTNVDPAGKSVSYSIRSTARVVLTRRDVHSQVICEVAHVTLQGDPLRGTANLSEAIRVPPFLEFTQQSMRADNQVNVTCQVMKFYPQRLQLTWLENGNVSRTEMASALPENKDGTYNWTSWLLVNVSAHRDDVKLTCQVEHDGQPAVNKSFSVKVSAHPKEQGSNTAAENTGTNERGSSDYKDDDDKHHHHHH

QP094 (human SIRPα V1 …) [2] = molecular target: T2, QP094 (human SIRPα V1 ECD(E31-R370)-flag-his) (human, UniProt P78324 31-370); assay: SPR, Biacore T200
T2 construct: the construct carries flag and his tags; also called SIRPαV1-flag-his; SIRPαV1-his (QP094)

QP096 (human SIRPα V2 …) [3] = molecular target: T3, QP096 (human SIRPα V2 ECD(E31-R370)-flag-his) (human); assay: SPR, Biacore T200
T3 construct: the construct carries flag and his tags; also called SIRPαV2-Flag-his; Human SIRPα V2 (QP096)

QP094 (human SIRPα V1 …) [4] = molecular target: T2, QP094 (human SIRPα V1 …); assay: SPR, Biacore
QP096 (human SIRPα V2 …) [5] = molecular target: T3, QP096 (human SIRPα V2 …); assay: SPR, Biacore
QP094 (human SIRPα V1 …) [6] = molecular target: T2, QP094 (human SIRPα V1 …); assay: binding ELISA, antigen coated
QP096 (human SIRPα V2 …) [7] = molecular target: T3, QP096 (human SIRPα V2 …); assay: binding ELISA, antigen coated
[8] = molecular target: T4, QP098 (cyno SIRPα (I7G9Z7) ECD(E31-R369)-flag-his) (cynomolgus); assay: binding ELISA, antigen coated
T4 construct: the construct carries flag and his tags; also called cynoSIRPα (ECD); cynomolgus SIRPα
T4 chain: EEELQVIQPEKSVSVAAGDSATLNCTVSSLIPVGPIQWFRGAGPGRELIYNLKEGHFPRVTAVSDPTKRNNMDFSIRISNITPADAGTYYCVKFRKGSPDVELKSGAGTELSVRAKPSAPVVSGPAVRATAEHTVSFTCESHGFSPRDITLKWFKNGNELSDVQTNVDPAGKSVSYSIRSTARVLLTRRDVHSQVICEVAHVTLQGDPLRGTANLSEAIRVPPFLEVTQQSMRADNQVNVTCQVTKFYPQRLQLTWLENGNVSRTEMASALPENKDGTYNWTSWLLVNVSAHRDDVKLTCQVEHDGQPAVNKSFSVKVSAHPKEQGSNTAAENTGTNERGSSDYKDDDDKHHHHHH

[9] = molecular target: T1, QP100 (cyno SIRPα (G7PGS8) …); assay: binding ELISA, antigen coated
[10] = molecular target: T5, QP271 (rhesus SIRPα1-flag-his T-557-28) (rhesus monkey); assay: binding ELISA, antigen coated
T5 construct: also called rhesus monkey SIRPα (QP271); monkeySIRPα1-flag-his
T5 chain: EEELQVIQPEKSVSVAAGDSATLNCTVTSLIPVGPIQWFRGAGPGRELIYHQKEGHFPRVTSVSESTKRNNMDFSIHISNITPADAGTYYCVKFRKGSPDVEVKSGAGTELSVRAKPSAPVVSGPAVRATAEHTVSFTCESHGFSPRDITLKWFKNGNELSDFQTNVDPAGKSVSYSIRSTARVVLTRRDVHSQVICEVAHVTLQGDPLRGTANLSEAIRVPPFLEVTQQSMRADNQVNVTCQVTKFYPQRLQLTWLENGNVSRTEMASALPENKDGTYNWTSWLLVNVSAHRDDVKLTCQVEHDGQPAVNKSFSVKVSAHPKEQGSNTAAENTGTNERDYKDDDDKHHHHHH

[11] = molecular target: T6, QP273 (cynoSIRPα2-flag-his T-557-14) (cynomolgus); assay: binding ELISA, antigen coated
T6 construct: also called cynomolgus SIRPα (QP273)
T6 chain: T5 chain with D19E, V27A, A42V, H51S, S62P, E65D, S66P, H77R, V103L

- Kd [1]: 132000 pM
- koff [1]: 0.263 s⁻¹
- kon [1]: 1.99e+06 M⁻¹ s⁻¹
- Kd (QP094 (human SIRPα V1 …) [2]): 527 pM
- koff (QP094 (human SIRPα V1 …) [2]): 0.00143 s⁻¹
- kon (QP094 (human SIRPα V1 …) [2]): 2.71e+06 M⁻¹ s⁻¹
- Kd (QP096 (human SIRPα V2 …) [3]): 678 pM
- koff (QP096 (human SIRPα V2 …) [3]): 0.0023 s⁻¹
- kon (QP096 (human SIRPα V2 …) [3]): 3.39e+06 M⁻¹ s⁻¹
B1: QP163164 (antibody, human IgG1, kappa)
heavy: QVQLQQPGTELVRPGASVKLSCKASGYTFTNYWINWVKQRPGQGLEWIAMIDPSDSETHYNQIFKDKATLTVDKSSNTAYMQLSSLTSGDSAVYYCAMDYGSLYAMDYWGRGTSVTVSS[no letters for human IgG1 constant region]
light: DIVLTQSPASLAVSLGQRATISCRASKSVSSSGYNYIFWYQQKPGQPPKLLIYLASNLDSGVPARFSGSGSGTDFTLNIHPVEEEDAATYYCQHSRELPTFGGGTKLEIKRTVAAPSVFIFPPSDEQLKSGTASVVCLLNNFYPREAKVQWKVDNALQSGNSQESVTEQDSKDSTYSLSSTLTLSKADYEKHKVYACEVTHQGLSSPVTKSFNRGEC
notes: Murine 71C10 variable regions on human IgG1 / kappa constant regions; also called anti-SIRPα chimeric antibody QP163164; 71C10 chimeric, human IgG1

- Kd (QP094 (human SIRPα V1 …) [4]): 386 pM
- Kd (QP096 (human SIRPα V2 …) [5]): 558 pM
- EC50 (QP094 (human SIRPα V1 …) [6]): 1.11 ng/mL
- EC50 (QP096 (human SIRPα V2 …) [7]): 1.23 ng/mL
- EC50 [8]: 1.53 ng/mL
- EC50 [9]: 1.17 ng/mL
- EC50 [10]: 0.882 ng/mL
- EC50 [11]: 1.6 ng/mL
B2: QP163245 (antibody, human IgG4 S228P, kappa)
heavy: QVQLQQPGTELVRPGASVKLSCKASGYTFTNYWINWVKQRPGQGLEWIAMIDPSDSETHYNQIFKDKATLTVDKSSNTAYMQLSSLTSGDSAVYYCAMDYGSLYAMDYWGRGTSVTVSSASTKGPSVFPLAPCSRSTSESTAALGCLVKDYFPEPVTVSWNSGALTSGVHTFPAVLQSSGLYSLSSVVTVPSSSLGTKTYTCNVDHKPSNTKVDKRV[no letters for human IgG4 Fc with S228P (EU numbers)]
light: B1 light
notes: also called chimeric antibody QP163245; 71C10 chimeric, human IgG4
